{"source": "PubChem BioAssay (NCATS)", "key": {"[1]": {"target": "Endonuclease 4 (Escherichia coli (strain K12)) (UniProt P0A6C1)", "assay": "Counterscreen for APE1 Inhibitors: qHTS Validation Assay for Inhibitors of Endonuclease IV (AID 1708); also: potency is read from the fitted curve at half-maximal effect", "outline": "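E. coli EndoIV at 2 nM final, preincubated 15 min at room temperature with compound, then 50 nM TAMRA/BHQ-2 THF abasic-site duplex added. Buffer: 50 mM Tris-HCl pH 7.5, 50 mM NaCl, 2 mM MgCl2, 1 mM DTT, 0.01% Tween-20. Kinetic fluorescence increase, third minus first read.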"}, "[2]": {"target": "RecQ-like DNA helicase BLM (Homo sapiens) (UniProt P54132)", "sequence (P54132 whole entry, looked up)": "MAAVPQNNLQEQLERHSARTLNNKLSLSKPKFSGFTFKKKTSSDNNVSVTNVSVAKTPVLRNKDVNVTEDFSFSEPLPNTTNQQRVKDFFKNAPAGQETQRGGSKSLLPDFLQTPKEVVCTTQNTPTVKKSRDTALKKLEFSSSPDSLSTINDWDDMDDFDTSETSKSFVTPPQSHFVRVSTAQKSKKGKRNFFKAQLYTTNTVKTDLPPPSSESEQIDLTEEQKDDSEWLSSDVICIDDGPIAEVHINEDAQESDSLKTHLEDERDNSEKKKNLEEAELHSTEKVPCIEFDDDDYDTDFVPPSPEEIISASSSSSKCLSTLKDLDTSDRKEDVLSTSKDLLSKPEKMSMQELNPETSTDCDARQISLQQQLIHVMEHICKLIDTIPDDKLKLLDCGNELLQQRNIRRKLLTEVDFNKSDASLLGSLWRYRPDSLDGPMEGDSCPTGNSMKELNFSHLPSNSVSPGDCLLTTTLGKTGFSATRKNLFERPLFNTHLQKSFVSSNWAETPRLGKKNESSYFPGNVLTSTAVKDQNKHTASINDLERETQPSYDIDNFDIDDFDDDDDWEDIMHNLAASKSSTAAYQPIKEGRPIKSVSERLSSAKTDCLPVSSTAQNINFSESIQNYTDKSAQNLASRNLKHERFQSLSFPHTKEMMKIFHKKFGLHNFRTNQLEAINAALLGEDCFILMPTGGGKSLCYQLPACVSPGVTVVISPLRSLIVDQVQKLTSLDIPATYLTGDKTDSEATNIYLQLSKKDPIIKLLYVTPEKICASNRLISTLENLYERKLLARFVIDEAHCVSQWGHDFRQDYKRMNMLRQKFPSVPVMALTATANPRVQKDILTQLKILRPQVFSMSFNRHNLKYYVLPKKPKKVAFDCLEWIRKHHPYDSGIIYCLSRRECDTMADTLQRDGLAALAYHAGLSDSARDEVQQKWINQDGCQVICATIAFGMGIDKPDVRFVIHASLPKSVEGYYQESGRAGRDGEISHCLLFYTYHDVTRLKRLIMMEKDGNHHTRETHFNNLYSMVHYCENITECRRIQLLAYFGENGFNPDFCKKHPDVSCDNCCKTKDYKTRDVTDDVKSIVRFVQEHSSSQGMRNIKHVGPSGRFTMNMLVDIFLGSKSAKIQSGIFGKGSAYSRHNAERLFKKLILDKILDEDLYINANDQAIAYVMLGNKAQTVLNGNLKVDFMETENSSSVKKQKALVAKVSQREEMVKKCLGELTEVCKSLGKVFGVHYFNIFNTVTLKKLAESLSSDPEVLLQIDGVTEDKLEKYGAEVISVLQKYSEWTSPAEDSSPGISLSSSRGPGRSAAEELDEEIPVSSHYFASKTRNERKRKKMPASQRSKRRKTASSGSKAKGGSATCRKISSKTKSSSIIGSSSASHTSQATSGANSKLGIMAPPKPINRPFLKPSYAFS", "assay": "qHTS Validation Assay for Inhibitors of Bloom's syndrome helicase (BLM) (AID 2364); also: potency is read from the fitted curve at half-maximal effect", "outline": "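50 nM BLM preincubated 15 min at room temperature with compound in pH 8.0 Tris buffer containing 2.5 ug/ml poly(dI-dC); started with 200 nM TAMRA/BHQ-2 forked duplex and 2 mM ATP (final). Unwinding read as TAMRA fluorescence increase, two reads 2 h apart.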"}, "[3]": {"assay": "Quantitative high throughput screen for delayed death inhibitors of the malarial parasite plastid, 96 hour incubation (AID 488745); also: % is scaled to controls: 0 for no effect and ±100 for the full control effect; nearly all actives have a fitted effect of over 70% in size", "outline": "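Infected erythrocytes were added to compound in Albumax-supplemented RPMI 1640 at 0.1% parasitemia and 2% hematocrit (final), incubated 96 h at 37 C under 5% CO2, then luciferase reagent was added and luminescence measured.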"}, "[4]": {"assay": "Quantitative high throughput screen for delayed death inhibitors of the malarial parasite plastid, 48 hour incubation (AID 488752); also: % is scaled to controls: 0 for no effect and ±100 for the full control effect; nearly all actives have a fitted effect of over 65% in size", "outline": "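Readout is firefly luciferase luminescence from a reporter integrated into the parasite genome, with lower signal taken as inhibited growth. Infected red cells (0.1% parasitemia, 2% hematocrit final) are cultured with compound for one 48 h cycle at 37 C.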"}, "[5]": {"target": "Nuclear receptor subfamily 1 group I member 3 (Homo sapiens) (UniProt Q14994)", "sequence (Q14994 whole entry, looked up)": "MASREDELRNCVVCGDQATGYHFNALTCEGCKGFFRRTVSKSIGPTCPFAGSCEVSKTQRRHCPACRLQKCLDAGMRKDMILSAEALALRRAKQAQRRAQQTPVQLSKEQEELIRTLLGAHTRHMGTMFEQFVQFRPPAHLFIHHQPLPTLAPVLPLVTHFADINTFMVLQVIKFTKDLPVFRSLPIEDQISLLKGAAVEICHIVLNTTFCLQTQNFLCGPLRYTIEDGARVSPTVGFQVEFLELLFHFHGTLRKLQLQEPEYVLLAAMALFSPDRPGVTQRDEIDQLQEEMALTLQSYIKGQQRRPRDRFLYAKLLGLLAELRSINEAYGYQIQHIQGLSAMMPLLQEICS", "assay": "Primary qHTS for agonist of constitutive androstane receptor (CAR) against the NCATS DSHEA and TCM libraries (AID 1794839); also: potency is read from the fitted curve at half-maximal effect", "outline": "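Cells stably carrying hCAR and a CYP2B6 reporter (HepG2 background) are seeded and allowed 5 h to adhere. Substances at multiple concentrations are added alongside 0.75 µM PK11195, and luciferase signal is measured after 24 h.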"}, "[6]": {"target": "Cytochrome P450 2C9 (Homo sapiens) (UniProt P11712)", "sequence (P11712 whole entry, looked up, canonical isoform)": "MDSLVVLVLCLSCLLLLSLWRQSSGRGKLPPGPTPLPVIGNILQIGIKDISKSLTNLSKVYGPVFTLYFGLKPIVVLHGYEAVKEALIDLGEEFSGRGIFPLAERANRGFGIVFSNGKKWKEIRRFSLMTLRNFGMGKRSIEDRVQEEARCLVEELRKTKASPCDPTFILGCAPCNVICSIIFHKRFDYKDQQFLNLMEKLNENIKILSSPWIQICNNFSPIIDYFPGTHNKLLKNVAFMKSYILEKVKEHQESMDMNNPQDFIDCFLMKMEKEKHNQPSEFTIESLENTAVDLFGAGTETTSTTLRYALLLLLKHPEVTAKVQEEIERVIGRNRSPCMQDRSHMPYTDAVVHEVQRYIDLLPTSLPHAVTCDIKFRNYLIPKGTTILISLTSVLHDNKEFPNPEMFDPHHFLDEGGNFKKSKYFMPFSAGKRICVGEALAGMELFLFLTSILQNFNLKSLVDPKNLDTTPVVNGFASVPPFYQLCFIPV", "assay": "qHTS for inhibitors of CYP2C9 against the NCATS DSHEA and TCM libraries (AID 1919973); also: potency is read from the fitted curve at half-maximal effect", "outline": "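Read-out is luminescence after P450-Glo detection (30 min, RT). Before that: 15 min compound–enzyme preincubation, then 30-45 min reaction with 1x NADPH regeneration solution, substrate concentration isoform-specific.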"}, "[7]": {"target": "Cytochrome P450 1A2 (Homo sapiens) (UniProt P05177)", "sequence (P05177 whole entry, looked up)": "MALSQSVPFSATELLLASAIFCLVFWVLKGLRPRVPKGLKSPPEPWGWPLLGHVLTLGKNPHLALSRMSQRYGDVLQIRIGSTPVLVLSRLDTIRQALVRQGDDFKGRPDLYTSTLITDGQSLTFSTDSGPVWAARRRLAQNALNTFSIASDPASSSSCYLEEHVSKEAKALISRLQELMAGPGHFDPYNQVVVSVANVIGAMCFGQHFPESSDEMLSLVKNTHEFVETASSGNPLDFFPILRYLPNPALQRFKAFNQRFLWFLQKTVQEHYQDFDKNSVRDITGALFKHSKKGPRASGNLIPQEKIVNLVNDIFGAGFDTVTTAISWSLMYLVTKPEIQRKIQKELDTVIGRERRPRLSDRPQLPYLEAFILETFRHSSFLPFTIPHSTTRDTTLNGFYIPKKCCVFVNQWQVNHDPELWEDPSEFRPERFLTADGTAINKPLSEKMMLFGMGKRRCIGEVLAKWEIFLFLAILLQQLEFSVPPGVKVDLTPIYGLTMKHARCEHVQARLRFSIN", "assay": "qHTS for inhibitors of CYPIA2 against the NCATS DSHEA and TCM libraries (AID 1919976); also: potency is read from the fitted curve at half-maximal effect", "outline": "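CYP1A2 + luciferin substrate, 100 mM KPO4-type buffer; cmpd 15 min RT; 1x NADPH regen, 30-45 min RT dark; detection reagent 30 min RT; luminescence. Minus-enzyme wells as background; furafylline intraplate control.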"}, "[8]": {"assay": "KB-8-5-11 P-gp reporter qHTS against the NCATS DSHEA and TCM libraries (AID 1919977); also: 0% is about no effect", "outline": "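Cells were seeded, allowed ~4 h to attach, dosed by pin tool (substance titrations), incubated ~72 h at 37C, then lysed with CellTiter-Glo for 30 min at room temperature before luminescence reading.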"}, "[9]": {"target": "Nuclear receptor subfamily 1 group I member 2 (Homo sapiens) (UniProt O75469)", "sequence (O75469 whole entry, looked up)": "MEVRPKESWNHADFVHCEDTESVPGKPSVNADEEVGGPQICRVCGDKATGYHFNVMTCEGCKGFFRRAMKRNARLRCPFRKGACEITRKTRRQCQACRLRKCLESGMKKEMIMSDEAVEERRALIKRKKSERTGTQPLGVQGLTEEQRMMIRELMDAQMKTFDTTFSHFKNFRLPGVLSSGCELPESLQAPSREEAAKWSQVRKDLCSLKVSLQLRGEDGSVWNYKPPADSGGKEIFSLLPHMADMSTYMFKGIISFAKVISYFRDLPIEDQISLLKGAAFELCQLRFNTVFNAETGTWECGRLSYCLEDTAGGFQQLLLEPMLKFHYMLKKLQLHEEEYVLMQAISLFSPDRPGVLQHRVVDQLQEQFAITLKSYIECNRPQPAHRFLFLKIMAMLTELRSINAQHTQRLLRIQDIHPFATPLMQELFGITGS", "assay": "Dual reporter qHTS for agonist of Pregnane X Receptor (hPXR) against the NCATS DSHEA and TCM libraries: Luminescence readout (AID 1920059); also: 0% is about no effect", "outline": "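hPXR-Luc HepG2 cells, 2000/well in 5% charcoal-stripped FBS medium, attached 5 h, then exposed 24 h at 37C to compounds. Viability by CellTiter-Fluor, then luciferase luminescence with ONE-Glo.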"}, "[10]": {"target": "Glutathione peroxidase 1 (Homo sapiens) (UniProt P07203)", "sequence (P07203 whole entry, looked up)": "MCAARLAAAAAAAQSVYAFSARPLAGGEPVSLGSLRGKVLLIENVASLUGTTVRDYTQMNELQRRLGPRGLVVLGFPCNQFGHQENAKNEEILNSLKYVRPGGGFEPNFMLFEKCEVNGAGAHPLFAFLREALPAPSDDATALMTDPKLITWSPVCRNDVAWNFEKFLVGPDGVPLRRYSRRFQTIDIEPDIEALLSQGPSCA", "assay": "Primary qHTS Assay for Inhibitors of Recombinant Selenoprotein Glutathione Peroxidase 1 (GPX1) (AID 1845191); also: potency is read from the fitted curve at half-maximal effect; nearly all actives have a fitted effect of over 65% in size", "outline": "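GR-coupled assay: compounds preincubated 30 min at room temperature with GPX1, then reaction started with CHP; final 10 nM GPX1, 1 mM GSH, 0.5 mM CHP, 0.5 mM NADPH, 100 nM GR, 0.01% BSA, pH 7.5 Tris buffer. NADPH fluorescence (340/450 nm) read at 0 and 15 min.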"}, "[11]": {"assay": "AP1 Signaling Pathway (AID 357; active = well fitted curve in either direction with a large enough effect, not every such curve was filed as active; inconclusive = small, poorly fitted or top-dose-only effect, or another doubt; also: top concentration of the series differs between compounds; % is scaled to controls: 0 for no effect and ±100 for the full control effect)", "details": "ME-180 AP-1-bla reporter, EGF-induced, beta-lactamase ratio, 5 h; at 17.2 µM (top of the series) unless noted", "outline": "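A ratiometric CCF4 readout (405 nm excitation; 460 and 530 nm emission) quantified AP-1-driven beta-lactamase in ME-180 cells after 5 h with compound and EC50 EGF; AC50 values were derived for activators and inhibitors.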"}, "[12]": {"assay": "NFAT Signaling Pathway (AID 444; active = well fitted curve in either direction with a large enough effect, not every such curve was filed as active; inconclusive = small, poorly fitted or top-dose-only effect, or another doubt;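 also: carbachol stimulus at about its EC50 of 1 µM final; % is scaled to controls: 0 for no effect and ±100 for the full control effect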)", "details": "Jurkat NFAT-bla M1, carbachol, beta-lactamase ratio, 5 h; at 17.2 µM (top of the series) unless noted", "outline": "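Jurkat cells with NFAT-driven β-lactamase reporter and co-expressed M1 receptor, stimulated with carbachol (final 1 uM, ~EC50), compound titration, 5 h at 37 °C. CCF4 loaded 1 h at RT; 460/530 nm ratio gave %activity and AC50.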"}, "[13]": {"target": "3',5'-cyclic-AMP phosphodiesterase 4B (Homo sapiens) (UniProt Q07343)", "assay": "qHTS Assay for Inhibitors of PDE-IV (AID 607; active = well fitted activation curve with a large enough effect in the main read-out, with a control signal flat, not every such curve was filed as active; inconclusive = small, poorly fitted or top-dose-only effect, or effect the other way, or a change in a side signal; also: potency is read from the fitted curve at half-maximal effect)", "details": "HEK293 ACTOne CNG channel cells, membrane potential fluorescence; activation (PDE inhibition): at 22.9 µM (top of the series)", "outline": "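Cell-based read-out of cAMP via a modified cyclic nucleotide-gated channel and membrane potential dye (535/590 nm) in HEK293 cells expressing PDE4 endogenously. Compounds tested up to 22.9 uM final; 100 uM RO 20-1724 reference.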"}, "[14]": {"target": "Dual specificity protein kinase CLK4 (Homo sapiens) (UniProt Q9HAZ1)", "sequence (Q9HAZ1 whole entry, looked up)": "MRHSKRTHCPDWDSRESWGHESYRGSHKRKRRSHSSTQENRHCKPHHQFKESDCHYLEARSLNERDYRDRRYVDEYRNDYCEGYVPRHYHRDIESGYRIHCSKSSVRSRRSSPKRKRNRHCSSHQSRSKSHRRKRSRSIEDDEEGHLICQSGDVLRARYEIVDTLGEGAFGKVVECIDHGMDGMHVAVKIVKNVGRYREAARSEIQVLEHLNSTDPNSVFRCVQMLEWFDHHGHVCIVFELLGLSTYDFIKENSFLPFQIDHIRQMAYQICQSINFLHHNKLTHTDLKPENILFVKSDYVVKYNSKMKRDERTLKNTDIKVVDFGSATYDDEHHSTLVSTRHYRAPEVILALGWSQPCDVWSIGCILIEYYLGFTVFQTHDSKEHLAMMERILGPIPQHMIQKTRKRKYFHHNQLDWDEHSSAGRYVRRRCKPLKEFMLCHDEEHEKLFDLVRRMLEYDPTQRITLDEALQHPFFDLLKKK", "assay": "qHTS Assay for Inhibitors of CDC-like Kinase 4 (Kinase-Glo Assay) (AID 1770); also: potency is read from the fitted curve at half-maximal effect; nearly all actives have a fitted effect of over 65% in size", "outline": "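Inhibition was judged from remaining ATP, measured by Ultra-Glo luciferase bioluminescence after Clk4 (25 nM) had acted on RS peptide at 1 uM ATP for 4.5 hours, room temperature.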"}, "[15]": {"target": "Dual specificity protein kinase CLK4 (Homo sapiens) (UniProt Q9HAZ1)", "assay": "qHTS Assay for Inhibitors of CDC-like Kinase 4 (ADP-Glo Assay) (AID 1771); also: potency is read from the fitted curve at half-maximal effect; nearly all actives have a fitted effect of over 70% in size", "outline": "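Luminescence from ADP-Glo reports ADP produced by 25 nM Clk4 acting on 100 uM RS repeat peptide with 1 uM ATP over 1 hr at room temperature; residual ATP is depleted before ADP is converted to ATP for detection.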"}, "[16]": {"target": "Dual specificity protein kinase CLK4 (Homo sapiens) (UniProt Q9HAZ1)", "assay": "qHTS Assay for Inhibitors of CDC-like Kinase 4 (ADP-FP Assay) (AID 1795); also: nearly all actives have a fitted effect of over 60% in size; also: potency is read from the fitted curve at half-maximal effect; as to activity change, negative = inhibition: % is scaled to controls: 0 for no effect and ±100 for the full control effect", "outline": "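Inhibition of ADP formation by 6.25 nM Clk4 is measured using 1 uM ATP and 100 uM RS repeat peptide over one hour. Produced ADP displaces a fluorescent tracer from antibody, lowering polarization.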"}, "[17]": {"target": "Mitogen-activated protein kinase 10 (Mus musculus) (UniProt Q61831)", "assay": "JNK3 AlphaScreen Assay (AID 530; active = well fitted curve in either direction with a large enough effect, not every such curve was filed as active; inconclusive = small, poorly fitted or top-dose-only effect, or another doubt;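 also: kinase came from lysate of stimulated human HepG2 cells; % is scaled to controls: 0 for no effect and ±100 for the full control effect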)", "details": "JNK3 lysate, c-Jun phosphorylation; activity change, negative = inhibition: at 57.1 µM (top of the series)", "outline": "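Pre-activated (IL-1β/TNFα) JNK3 in HepG2 lysates phosphorylates biotin-GST-cJun(1-79), 10 uM ATP; anti-phospho-cJun(Ser73) AlphaScreen read at room temperature, pH 7.6 Tris buffer. Compounds pre-incubated 15 min as titrations.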"}, "[18]": {"target": "Ubiquitin carboxyl-terminal hydrolase 1 (Homo sapiens) (UniProt O94782)", "sequence (O94782 whole entry, looked up)": "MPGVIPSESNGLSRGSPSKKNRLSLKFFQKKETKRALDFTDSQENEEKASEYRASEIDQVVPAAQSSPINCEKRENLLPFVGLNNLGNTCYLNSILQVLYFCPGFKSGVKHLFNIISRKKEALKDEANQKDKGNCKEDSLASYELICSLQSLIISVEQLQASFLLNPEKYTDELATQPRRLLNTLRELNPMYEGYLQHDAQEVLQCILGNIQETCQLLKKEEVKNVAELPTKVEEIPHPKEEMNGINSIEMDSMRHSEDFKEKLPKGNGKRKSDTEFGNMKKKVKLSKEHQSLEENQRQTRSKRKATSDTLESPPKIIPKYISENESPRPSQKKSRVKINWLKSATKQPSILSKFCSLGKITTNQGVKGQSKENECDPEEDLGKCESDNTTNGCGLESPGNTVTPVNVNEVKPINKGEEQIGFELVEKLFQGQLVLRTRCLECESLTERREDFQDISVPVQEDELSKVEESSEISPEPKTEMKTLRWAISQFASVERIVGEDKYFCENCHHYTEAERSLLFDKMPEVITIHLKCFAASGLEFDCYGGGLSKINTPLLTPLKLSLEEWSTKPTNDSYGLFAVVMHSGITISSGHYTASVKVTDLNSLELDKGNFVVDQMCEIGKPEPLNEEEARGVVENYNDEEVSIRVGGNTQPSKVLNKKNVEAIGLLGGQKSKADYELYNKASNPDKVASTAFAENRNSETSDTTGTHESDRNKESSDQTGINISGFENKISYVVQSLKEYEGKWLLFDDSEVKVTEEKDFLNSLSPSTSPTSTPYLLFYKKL", "assay": "Inhibitors of USP1/UAF1: Pilot qHTS (AID 504865);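 also: rhodamine fluorescence freed from ubiquitin-rhodamine substrate followed over time; top concentration of the series differs between compounds; % is scaled to controls: 0 for no effect and ±100 for the full control effect; nearly all actives have a fitted effect of over 35% in size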", "outline": "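Kinetic fluorescence assay: 1nM USP1/UAF1, 15 min compound preincubation, then 150nM Ub-Rho; 480/540 nm.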"}}, "note": "This list was built around the results that the source calls inconclusive (neither active nor inactive); the mix of calls is not that of the screen. For some assays here: Where the call is inconclusive, the potency comes from a doubtful curve fit. The source made the active and inactive calls. Unless noted, calls follow the shape of the dose curve; as a rule, active = well fitted curve in the direction sought with a large enough effect; inconclusive = small, poorly fitted or top-dose-only effect, or another doubt; inactive = no such curve, though single readings can be large; an effect the other way counts as inactive or inconclusive. Tags tell the direction and shape of the fitted curve."}
{"smiles": "CSc1nc(N)c2ncn([C@@H]3O[C@H](COP(=O)(O)OP(=O)(O)O)[C@H](O)[C@H]3O)c2n1", "values": [{"measurement": "Potency", "setting": "[1]", "result": "inconclusive: 11.2 µM [inhibitor, full curve, poor fit]"}, {"measurement": "Potency", "setting": "[2]", "result": "inconclusive: 39.8 µM [inhibitor, partial curve, poor fit]"}, {"measurement": "Potency", "setting": "[3]", "result": "inactive"}, {"measurement": "Potency", "setting": "[4]", "result": "inactive"}]}
{"smiles": "O=c1c(O[C@@H]2O[C@H](CO)[C@H](O)[C@H](O)[C@H]2O)c(-c2ccc(O)c(O)c2)oc2cc(O)cc(O)c12", "values": [{"measurement": "Potency", "setting": "[5]", "result": "inconclusive: 4.47 µM [activator, full curve]"}, {"measurement": "Potency", "setting": "[6]", "result": "active: 7.94 µM"}, {"measurement": "Potency", "setting": "[7]", "result": "inconclusive: 3.98 µM [inhibitor, full curve]"}, {"measurement": "Potency", "setting": "[8]", "result": "inactive"}, {"measurement": "Potency", "setting": "[9]", "result": "inactive"}]}
{"smiles": "C=C[C@@H]1C[C@]1(NC(=O)[C@@H]1C[C@@H]2CN1C(=O)[C@H](C(C)(C)C)NC(=O)O[C@@H]1C[C@H]1CCCCCc1nc3ccc(OC)cc3nc1O2)C(=O)NS(=O)(=O)C1CC1", "values": [{"measurement": "Potency", "setting": "[10]", "result": "inconclusive: 11.4 µM [inhibitor, partial curve]"}]}
{"smiles": "CN(C)C(=O)c1ccc(-c2ccc3ncnc(N(C)Cc4ccco4)c3c2)cc1", "values": [{"measurement": "activity change, negative = inhibition", "setting": "[11]", "result": "inconclusive: -44.1% [inhibitor] [at 7.69 µM]"}, {"measurement": "activity change, negative = inhibition", "setting": "[12]", "result": "inactive: 8.43% [at 7.69 µM]"}, {"measurement": "Potency", "setting": "[13]", "result": "inconclusive: 10 µM [activator, partial curve]"}, {"measurement": "Potency", "setting": "[14]", "result": "inconclusive: 3.16 µM [falling, full curve]"}, {"measurement": "Potency", "setting": "[15]", "result": "inconclusive: 3.16 µM [falling, full curve]"}, {"measurement": "Potency", "setting": "[16]", "result": "active: 7.08 µM"}]}
{"smiles": "Cc1cnc(CNc2ccnc(-c3cccc(NS(C)(=O)=O)c3)n2)cn1", "values": [{"measurement": "Potency", "setting": "[14]", "result": "inconclusive: 31.6 µM [falling, partial curve]"}, {"measurement": "Potency", "setting": "[15]", "result": "inconclusive: 28.2 µM [falling, single point]"}]}
{"smiles": "Cc1cnc(CNc2cc(-c3c(C)noc3C)ncn2)cn1", "values": [{"measurement": "Potency", "setting": "[14]", "result": "inconclusive: 31.6 µM [falling, single point]"}, {"measurement": "Potency", "setting": "[15]", "result": "inconclusive: 28.2 µM [falling, single point]"}, {"measurement": "Potency", "setting": "[16]", "result": "inactive"}]}
{"smiles": "c1cncc(-c2ccc3ncnc(NCCN4CCOCC4)c3c2)c1", "values": [{"measurement": "Potency", "setting": "[17]", "result": "inactive"}, {"measurement": "Potency", "setting": "[14]", "result": "active: 15.8 µM"}, {"measurement": "Potency", "setting": "[15]", "result": "active: 17.8 µM"}, {"measurement": "Potency", "setting": "[16]", "result": "inconclusive: 12.6 µM [falling, partial curve]"}, {"measurement": "Potency", "setting": "[18]", "result": "inactive"}]}
